This is an account of results in publication PMC4780765.

Amino acid sequences for entries named in this document (tags omitted). A change or cut given only in a name is not applied to a line headed by its entry. Chains listed by the source or under a name are the forms on record and can include a tag or linker. Residues count along the entry.
UniProt P13569: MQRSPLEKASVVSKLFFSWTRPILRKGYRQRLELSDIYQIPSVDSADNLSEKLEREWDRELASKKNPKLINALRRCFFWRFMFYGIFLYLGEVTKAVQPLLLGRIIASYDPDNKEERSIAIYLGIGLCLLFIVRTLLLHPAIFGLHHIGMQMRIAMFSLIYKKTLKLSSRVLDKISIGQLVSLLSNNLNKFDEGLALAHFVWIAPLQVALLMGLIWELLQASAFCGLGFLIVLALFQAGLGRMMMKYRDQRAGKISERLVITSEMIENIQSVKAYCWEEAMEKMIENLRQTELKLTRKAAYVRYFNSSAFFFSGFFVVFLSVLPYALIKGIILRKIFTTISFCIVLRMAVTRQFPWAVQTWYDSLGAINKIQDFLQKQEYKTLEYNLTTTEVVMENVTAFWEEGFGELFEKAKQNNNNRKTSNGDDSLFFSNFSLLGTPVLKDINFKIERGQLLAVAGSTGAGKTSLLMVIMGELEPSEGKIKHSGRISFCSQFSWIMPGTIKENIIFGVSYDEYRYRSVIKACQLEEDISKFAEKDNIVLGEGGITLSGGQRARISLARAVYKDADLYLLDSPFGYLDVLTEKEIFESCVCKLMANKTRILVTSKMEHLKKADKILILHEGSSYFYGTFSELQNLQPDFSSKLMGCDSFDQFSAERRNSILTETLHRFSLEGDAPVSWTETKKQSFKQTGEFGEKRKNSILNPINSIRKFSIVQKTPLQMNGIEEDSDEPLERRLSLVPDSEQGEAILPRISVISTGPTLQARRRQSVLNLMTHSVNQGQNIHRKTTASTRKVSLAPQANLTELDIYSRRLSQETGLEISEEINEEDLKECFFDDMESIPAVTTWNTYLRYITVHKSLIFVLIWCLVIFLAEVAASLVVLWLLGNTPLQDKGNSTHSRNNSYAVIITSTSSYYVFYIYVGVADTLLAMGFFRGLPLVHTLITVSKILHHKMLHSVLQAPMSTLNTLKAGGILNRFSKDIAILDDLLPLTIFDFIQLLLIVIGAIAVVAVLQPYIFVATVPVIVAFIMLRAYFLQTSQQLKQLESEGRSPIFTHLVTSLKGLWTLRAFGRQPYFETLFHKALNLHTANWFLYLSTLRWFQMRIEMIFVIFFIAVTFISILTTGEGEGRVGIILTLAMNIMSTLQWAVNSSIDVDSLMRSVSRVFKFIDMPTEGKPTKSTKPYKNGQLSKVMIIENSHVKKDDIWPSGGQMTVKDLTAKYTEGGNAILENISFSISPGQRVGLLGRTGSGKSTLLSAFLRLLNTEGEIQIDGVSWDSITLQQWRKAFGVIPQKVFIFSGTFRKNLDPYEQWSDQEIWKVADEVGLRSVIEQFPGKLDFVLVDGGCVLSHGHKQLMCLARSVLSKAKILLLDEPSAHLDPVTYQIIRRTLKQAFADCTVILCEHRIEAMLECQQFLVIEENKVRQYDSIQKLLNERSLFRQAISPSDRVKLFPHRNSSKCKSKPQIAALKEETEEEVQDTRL
untagged NBD1 (351–727): residues 351-727 of P13569

These are yes or no findings as the source states them, for the method shown. For some of these results: Binding seen in cells or lysates may run through a third protein. Some entries that bind do so weakly or less than the wild type.

Assay [1] deals with nucleoside diphosphate kinase A (human (endogenous in 16HBE14o-)), P15531. Kind of assay: co-IP; NDPK-A and NDPK-B immunoprecipitates from membrane and cytosol of airway epithelia, each probed for the other isoform. The following applies: remark: other sources report otherwise.
Assay [2] deals with untagged NBD1 (351–727) (human) (UniProt P13569). Kind of assay: SPR; competition: 1 μg untagged NBD1 injected alone or together with peptide (10, 50 or 100 ng) over immobilised NDPK-B on CM5, HBS-EP, 25°C; response read 20 s into the dissociation phase; both purified. On the technique in general: Surface plasmon resonance follows binding to a sensor surface in real time, without labels.

The target of assay [3] is human recombinant nucleoside diphosphate kinase B isoform (human) (UniProt P22392). Nature of the assay: SPR; BIAcore 3000, NDPK-B immobilised by amine coupling on CM5 (5561.5 RU), analyte injected in HBS-EP pH 7.4 at 10 μL/min for 2 min, 25°C; response read 20 s into the dissociation phase, blank flow cell subtracted; both purified.
Assay [4] deals with cystic fibrosis transmembrane conductance regulator (human (endogenous in 16HBE14o-)) (UniProt P13569). Kind of assay: co-IP; release by a synthetic peptide: CFTR or NDPK-B immunoprecipitates on beads from lysates of FSK/IBMX-stimulated 16HBE14o- cells incubated with peptide for 30 min at 30°C; release of the partner into the supernatant by immunoblot; only the binder purified. In general terms: In western blotting, separated proteins are transferred to a membrane and probed.

B1: nucleoside diphosphate kinase B, P22392 1-152 (protein)
chain: MANLERTFIAIKPDGVQRGLVGEIIKRFEQKGFRLVAMKFLRASEEHLKQHYIDLKDRPFFPGLVKYMNSGPVVAMVWEGLNVVKTGRVMLGETNPADSKPGTIRGDFCIQVGRNIIHGSDSVKSAEKEISLWFKPEELVDYKSCAHDWVYE
For B1, the binding result in assay [1] was “no binding”.
Consider VAMKFLRASEEHLKQHYID [peptide NDPK-B 36–54], for which the binding result was “binds” in assay [2], “no binding (tested: 200 ng)” in assay [3] and “binds” in assay [4].
